# Test results published in PubChem BioAssay AID686979 (National Center for Advancing Translational Sciences (NCATS), 2013).
# Screen size: about 420,000 compounds; about 50,000 (12%) were called active. The inconclusive results got no clear call from the source; some entries with a clear call stand among them for comparison. Calls follow the shape of the dose curve; as a rule, active = well fitted inhibition curve with a large enough effect; inconclusive = small, poorly fitted or top-dose-only effect; inactive = flat fitted curve, though single readings scatter. Potencies of inconclusive entries are left out as doubtful fits.
# Experiment: qHTS for Inhibitors of human tyrosyl-DNA phosphodiesterase 1 (TDP1): qHTS in cells in presence of CPT; also: nearly all actives have a fitted effect of over 55% in size
# Conditions: chicken DT40 Tdp1-/-;hTDP1 cells + 20 nM CPT, ATP luminescence, 48 h; activity change, negative = growth inhibition: at 46.2 µM (top of the series) unless noted
# Outline: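 Chicken DT40 Tdp1-/- cells complemented with human TDP1, 400 cells/well, exposed to compounds plus 20 nM camptothecin for at least 48 h at 37 C; viability read as ATP content by CellTiter-Glo luminescence.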
# % is scaled to controls: 0 for no effect and ±100 for the full control effect; potency is read from the fitted curve at half-maximal effect; tags tell the direction and shape of the fitted curve.
SMILES,Potency,"activity change, negative = growth inhibition"
Cc1c(NS(C)(=O)=O)cccc1-c1nc2cccnc2s1,"inconclusive [inhibitor, single point]",
CCCN1CCc2c(sc(NC(=O)c3ccc(S(=O)(=O)N4CCCC4)cc3)c2C(N)=O)C1,"inconclusive [inhibitor, partial curve]",
C=CCc1c(C)[nH]c(=O)[nH]c1=O,inactive,
COc1ccc(C(=O)N2CCC3(CCCN(c4ccccc4)C3)CC2)cc1,"inconclusive [inhibitor, single point]",
CCN(CC)C(=O)[C@H]1CC(CC(=O)NCCC2=CCCCC2)C(=O)N2CCc3c([nH]c4ccc(OC)cc34)[C@]12C (some centres not stated),"inconclusive [inhibitor, single point]",
CCOC1=C2[C@@H](CN(S(=O)(=O)c3ccc(C)cc3)[C@H]2c2cccc3ccccc23)[C@H]2C(=O)N(CC)C(=O)[C@H]2C1,"inconclusive [inhibitor, single point]",
CCS(=O)(=O)c1oc(-c2ccc(F)cc2)nc1S(=O)(=O)c1ccccc1,active: 0.259 µM,
N#Cc1c(N)nc(-c2ccccc2)nc1-c1ccccc1,inactive,
Cc1ccc2c3c1C(=O)C(=O)N3C(C)(C)CC2C (configuration not stated),"inconclusive [inhibitor, single point]",
COc1ccc(S(=O)(=O)Nc2ccc(S(=O)(=O)Nc3nc(C)cc(C)n3)cc2)cc1OC,inactive,
Cc1ccc(C(=O)C[n+]2cccc3ccccc32)cc1,"inconclusive [inhibitor, partial curve]",
O=C(Cn1c(=O)n(-c2ccccc2)c(=O)c2ccc(C(=O)NCc3ccc4c(c3)OCO4)cc21)Nc1ccc(Br)cc1,"inconclusive [inhibitor, single point]",
Cc1nccn1CCCNC(=O)C1CCC(=O)N(Cc2ccccc2F)C1 (configuration not stated),inactive,
COc1cc(-c2noc(C)c2C(=O)NCCCN2CCCC2=O)cc(OC)c1OC,"inconclusive [inhibitor, single point]",
CCCCN(CC)C(=O)c1nn(-c2ccc(OC)cc2)c(=O)c2c1c1ccccc1n2C,"inconclusive [inhibitor, single point]",
COc1ccc(OC)c(CNC(=O)c2ccc3c(c2)c(C)c(C)n3C)c1,"inconclusive [inhibitor, single point]",
CCN(C(=O)COC(=O)CNC(=O)C1CCCCC1)c1ccccc1,inactive,
Cc1ccc(S(=O)(=O)N2CCN(C(=O)c3c(C)nn(-c4ccccc4)c3Cl)CC2)cc1,"inconclusive [inhibitor, single point]",
c1ccc(CNc2nc(-c3ccc4c(c3)OCO4)nc3ccccc23)cc1,inactive,
Nc1ccc2ccccc2c1C(=O)c1ccccc1,inactive,
Cc1cccc(OCCNc2cc(N3CCN(CCO)CC3)ccc2[N+](=O)[O-])c1,"inconclusive [inhibitor, single point]",
CO[C@@H]1CN(C)C(=O)c2cc(NC(=O)NC3CCCCC3)ccc2OC[C@@H](C)N(CCc2ccccc2)C[C@@H]1C,active: 16.4 µM,
COc1ccc(N2CCN(S(=O)(=O)CCNC(=O)Cc3ccc(OC)c(OC)c3)CC2)cc1,inactive,
Cc1ccc(OCCCCN2CCC(C)CC2)c(Br)c1,active: 23.1 µM,

SMILES,Potency,"activity change, negative = growth inhibition"
CCOC(=O)C(C)On1c(SC(C)C(=O)OCC)nc2ccccc2c1=O (configuration not stated),inactive,
COc1ccc(NC(=O)CCSc2ccc3ccccc3n2)cc1,inactive,
CCOC(=O)N1CCN(C(=O)CSc2nc3ccccc3c(=O)n2-c2ccccc2)CC1,"inconclusive [inhibitor, single point]",
CC1=C(C(=O)Nc2cccc(C(=O)NC3CCCCC3C)c2)SCCO1 (configuration not stated),active: 16.4 µM,
COc1ccc(N2CCN(C(=O)CCCCCn3c(=S)[nH]c4cc5c(cc4c3=O)OCO5)CC2)cc1,inactive,
O=C(Cc1ccc(S(=O)(=O)N2CCOCC2)s1)N1CCN(S(=O)(=O)c2cccc(F)c2)CC1,"inconclusive [inhibitor, single point]",
CC(=O)N1CC(C)Sc2ccc(S(=O)(=O)NCCc3ccccc3)cc21 (configuration not stated),active: 13 µM,
Cc1sc2nc(COC(=O)c3ccc(O)cc3)[nH]c(=O)c2c1C,"inconclusive [inhibitor, single point]",
CN1OC[C@@H]2CN(C(=O)CCc3ccccc3)[C@H](c3cccc(N4CCOCC4)c3)C[C@@H]21,inactive,
OC1CCCN(Cc2ccc3c(c2)Cc2ccccc2-3)C1 (configuration not stated),"inconclusive [inhibitor, partial curve]",
CC1CCc2sc(C(=O)N3CCC(C(N)=O)CC3)cc2C1 (configuration not stated),inactive,
O=C(O)c1[nH]c2ccccc2c1C(c1cc(Cl)cc([N+](=O)[O-])c1O)c1c(C(=O)O)[nH]c2ccccc12,inactive,
COc1ccc(OC)c(CN2CCN(C(=O)CNC(=O)c3cc(C)cc(C)c3)CC2)c1,inactive,
Cc1ccc(S(=O)(=O)N2C[C@@H]3[C@H]4CC[C@H](C4)[C@@H]3[C@@H](C)[C@H]2c2ccco2)cc1,active: 14.6 µM,
Cc1cnc(C(=O)OC(C)C(=O)NC2CCCc3ccccc32)cn1 (configuration not stated),inactive,
CCCC(C(=O)NCCC(C)C)N(Cc1ccc(F)cc1)C(=O)c1snc(C(N)=O)c1N (configuration not stated),"inconclusive [inhibitor, single point]",
Cc1ccc(NC(=O)C2(C)CCN2Cc2cccc3c2OCO3)cc1O (configuration not stated),active: 16.4 µM,
CCc1nc2ccc(C(=O)Nc3cccc(OCC(=O)N(C)C)c3)cn2c1N(CC)CCN(C)C,inactive,
O=C(COC(=O)c1cc([N+](=O)[O-])ccc1N1CCOCC1)NC1CCCCC1,inactive,
COC(=O)c1ccc(NC(=O)CCc2c(C)nc3c(c(C)nn3C(C)(C)C)c2C)cc1,"inconclusive [inhibitor, single point]",
CC(C)C[C@H](NC(=O)c1[nH]cnc1C(=O)N[C@@H](Cc1ccccc1)C(=O)OC(C)(C)C)C(=O)OC(C)(C)C,active: 16.4 µM,
O=C(COc1ccc(Br)cc1CNCCCN1CCOCC1)Nc1ccccc1,active: 16.4 µM,
Cc1ccc(O)c(/C=N/NC(=O)CN2CCCC2)c1,"inconclusive [inhibitor, single point]",
COc1ccc(OC)c(N(CC(=O)NC2CC3CCC2C3)S(=O)(=O)c2ccccc2)c1 (configuration not stated),"inconclusive [inhibitor, partial curve, poor fit]",

SMILES,Potency,"activity change, negative = growth inhibition"
O=S(=O)(Nc1ccc(-c2nc3ccccc3o2)cc1)c1ccccc1,inactive,
O=C(Nc1ccc2nc([C@@H]3O[C@H](CO)[C@@H](O)[C@H](O)[C@H]3O)[nH]c2c1)NC(c1ccccc1)c1ccccc1,inactive,
O=C(O)c1cccc2c1C(=O)N(C1CCCC1)C2,"inconclusive [inhibitor, single point]",
Cc1ccccc1CN1CCC(C(=O)Nc2ccc(Oc3cccnc3)cc2)CC1,,inconclusive: -32.2% [inhibitor]
CN(CC(=O)Nc1ccc(Cl)cc1)C(=O)CNC(=O)c1ccc(Br)o1,inactive,
O=C(C1=C[C@H](c2csc3ccccc23)C[C@H](OCc2ccc(CO)cc2)O1)N1CCN(Cc2ccc3c(c2)OCO3)CC1,active: 16.4 µM,
C=C1C(=C/C=C2\CCC[C@]3(C)[C@@H]([C@H](C)/C=C/[C@@H](O)C4CC4)CC[C@@H]23)C[C@@H](O)C[C@@H]1O,active: 23.7 µM,
CCOc1ccc(N2C(=O)C(Cl)=C(N3CCOCC3)C2=O)cc1,"inconclusive [inhibitor, single point]",
CCCC(=O)Nc1nc(C)c(-c2csc(Nc3cc(OC)ccc3OC)n2)s1,active: 4.61 µM,
CN1CCC(N(C)C(=O)/C=C/c2cn(-c3ccccc3)nc2-c2cccs2)CC1,"inconclusive [inhibitor, single point]",
CCNC(=O)C1(C)CCCN1C(=O)c1cnc2ccccc2n1 (configuration not stated),inactive,
CCOC(=O)c1c(Nc2ccccc2OCCOC)n[nH]c1C,"inconclusive [inhibitor, single point]",
Cc1cc(C(=O)COC(=O)c2ccc(N)cc2)c(C)n1-c1c(C)n(C)n(-c2ccccc2)c1=O,inactive,
CC(C)c1ccccc1-n1c(SCc2cc(=O)oc3ccc4ccccc4c23)nnc1-c1cccnc1,"inconclusive [inhibitor, single point]",
Clc1nc(-c2ccccc2)c2ccccc2n1,inactive,
C=CCN(CC=C)Cc1cc(=O)oc2cc(C)ccc12,inactive,
COc1ccc(C(C)=O)cc1CSc1nc2nc(C)cc(C)n2n1,inactive,
CN(C)CCNc1ccc2nnn3c4ccc(O)cc4c(=O)c1c23,active: 0.184 µM,
COc1ccc(N(CC(=O)NC2CCCCC2)C(=O)c2ccc(C)s2)c(OC)c1,"inconclusive [inhibitor, single point]",
CN(C)C(=O)c1ccc2c(c1)N(CC(=O)NCc1ccccc1Cl)C(=O)C1CCCCN21 (configuration not stated),inactive,
CCCc1cc(=O)oc2c(C)c(OCC(=O)NC3CCN(Cc4ccccc4)CC3)ccc12,active: 18.4 µM,
O=c1cnc2cnc(N3CCOCC3)nc2n1Cc1ccc(F)cc1,"inconclusive [inhibitor, single point]",
COc1ccc(-c2n[nH]c3c2CN(C(=O)c2ccc(F)cc2)CC3)cc1,"inconclusive [inhibitor, single point]",
Cn1c(NCCN2CCOCC2)nc2c1c(=O)n(Cc1cccc(Cl)c1)c(=O)n2C,"inconclusive [inhibitor, partial curve]",
